# Key:
# [1] = biological target: T1, sEH (Rattus norvegicus, UniProt P80299); details: read-out: sEH IC50, Rat
# T1 sequence (P80299 1-554): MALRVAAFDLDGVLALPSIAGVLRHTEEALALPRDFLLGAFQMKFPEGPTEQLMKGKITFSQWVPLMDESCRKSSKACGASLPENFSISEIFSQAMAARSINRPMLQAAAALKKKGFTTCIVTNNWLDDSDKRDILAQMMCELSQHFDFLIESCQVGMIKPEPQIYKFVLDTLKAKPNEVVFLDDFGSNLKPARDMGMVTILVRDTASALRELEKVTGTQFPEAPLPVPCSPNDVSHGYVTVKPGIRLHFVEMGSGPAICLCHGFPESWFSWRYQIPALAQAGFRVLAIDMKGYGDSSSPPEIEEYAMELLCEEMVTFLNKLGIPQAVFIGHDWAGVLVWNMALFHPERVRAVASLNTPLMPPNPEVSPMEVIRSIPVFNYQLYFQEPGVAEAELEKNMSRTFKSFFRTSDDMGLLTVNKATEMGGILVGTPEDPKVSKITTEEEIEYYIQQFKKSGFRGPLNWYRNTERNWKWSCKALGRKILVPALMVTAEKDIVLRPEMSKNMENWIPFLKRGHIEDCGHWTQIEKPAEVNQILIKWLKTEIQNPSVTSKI
# [2] = biological target: T2, sEH (Mus musculus, UniProt P34914); details: read-out: sEH IC50, Mouse
# T2 sequence (P34914 1-554): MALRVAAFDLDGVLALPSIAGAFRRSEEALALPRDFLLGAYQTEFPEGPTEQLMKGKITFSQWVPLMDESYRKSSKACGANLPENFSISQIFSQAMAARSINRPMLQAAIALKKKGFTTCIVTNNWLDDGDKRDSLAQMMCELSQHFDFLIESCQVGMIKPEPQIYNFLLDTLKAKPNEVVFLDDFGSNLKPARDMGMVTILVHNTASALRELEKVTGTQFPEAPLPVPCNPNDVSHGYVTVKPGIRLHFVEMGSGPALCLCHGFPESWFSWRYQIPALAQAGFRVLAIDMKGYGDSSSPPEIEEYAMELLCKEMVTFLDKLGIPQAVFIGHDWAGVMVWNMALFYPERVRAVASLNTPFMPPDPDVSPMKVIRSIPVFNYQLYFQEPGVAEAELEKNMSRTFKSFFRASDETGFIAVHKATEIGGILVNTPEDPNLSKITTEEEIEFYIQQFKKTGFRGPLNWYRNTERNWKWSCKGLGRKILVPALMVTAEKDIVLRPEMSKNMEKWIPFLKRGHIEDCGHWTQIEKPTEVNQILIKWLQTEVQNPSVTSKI
structure (smiles),measurement,setting,value
"O=C(Nc1ccc(OC(F)(F)F)cc1)N[C@H]1CC[C@H](Oc2ccc(C(=O)OCc3ccccc3)cc2)CC1 [Compound A-14, benzyl 4-((trans-4-(3-(4-(trifluoromethoxy)phenyl)ureido)cyclohexyl)oxy) benzoate]",IC50,[1],1.6 nM
same,IC50,[2],2.1 nM

# From patent publication US11873288B2, “Inhibitors for soluble epoxide hydrolase (sEH) and fatty acid amide hydrolase (FAAH)” (The Regents of the University of California, priority 2016, dated 2024)
